# Laboratory results as given in publication PMC4336329 (PLoS ONE, 2015).
# Hit rate of the full screen: of about 310,000 compounds, about 2,200 (0.71%) showed an effect of 50% or more. The effect is printed as a negative number. Some of the results follow.
# Target: human ether-à-go-go-related gene (hERG) potassium channel (human, UniProt Q12809)
# Assay: primary screen, population patch clamp on CHO cells stably expressing hERG
# Chain of human ether-à-go-go-related gene (hERG) potassium channel (Q12809 whole entry, looked up): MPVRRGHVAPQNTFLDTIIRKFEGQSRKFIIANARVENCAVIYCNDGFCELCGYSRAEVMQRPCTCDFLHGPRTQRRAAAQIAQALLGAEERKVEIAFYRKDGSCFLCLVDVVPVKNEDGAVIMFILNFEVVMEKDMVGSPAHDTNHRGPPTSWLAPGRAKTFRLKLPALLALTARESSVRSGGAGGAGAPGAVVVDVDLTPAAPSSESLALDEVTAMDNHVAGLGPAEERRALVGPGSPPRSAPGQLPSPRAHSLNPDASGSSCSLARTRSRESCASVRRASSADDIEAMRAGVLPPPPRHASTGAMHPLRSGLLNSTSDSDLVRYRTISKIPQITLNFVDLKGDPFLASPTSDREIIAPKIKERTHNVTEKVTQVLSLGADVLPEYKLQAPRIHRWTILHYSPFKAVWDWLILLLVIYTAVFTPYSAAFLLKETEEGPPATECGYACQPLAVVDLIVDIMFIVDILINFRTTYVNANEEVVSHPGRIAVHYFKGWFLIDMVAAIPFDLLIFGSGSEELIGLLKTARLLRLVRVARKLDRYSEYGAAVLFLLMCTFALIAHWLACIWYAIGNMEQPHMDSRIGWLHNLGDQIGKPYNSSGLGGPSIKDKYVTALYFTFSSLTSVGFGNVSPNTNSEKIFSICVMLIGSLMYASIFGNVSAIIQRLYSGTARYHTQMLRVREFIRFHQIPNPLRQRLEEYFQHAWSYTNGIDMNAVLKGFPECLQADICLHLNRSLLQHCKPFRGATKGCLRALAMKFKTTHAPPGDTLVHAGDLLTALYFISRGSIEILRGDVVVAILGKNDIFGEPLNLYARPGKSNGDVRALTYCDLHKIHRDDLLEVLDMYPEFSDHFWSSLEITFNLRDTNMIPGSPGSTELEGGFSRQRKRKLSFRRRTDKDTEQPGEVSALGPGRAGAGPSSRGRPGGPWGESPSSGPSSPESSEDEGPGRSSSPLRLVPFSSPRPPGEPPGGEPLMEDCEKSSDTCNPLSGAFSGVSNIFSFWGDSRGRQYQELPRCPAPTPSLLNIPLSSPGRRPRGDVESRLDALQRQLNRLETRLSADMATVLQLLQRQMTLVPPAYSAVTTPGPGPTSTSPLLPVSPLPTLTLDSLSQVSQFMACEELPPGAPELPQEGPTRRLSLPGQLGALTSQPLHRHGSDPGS
row,SMILES,"hERG current change (%, negative = inhibition) at 1uM"
1,c1ccc(-c2csc3ncnc(NCCCN4CCOCC4)c23)cc1,2.19%
2,O=c1c2ccccc2nc(-c2ccc([N+](=O)[O-])cc2)n1-c1ccccc1,4.72%
3,C=CCC1c2cccc(C(=O)O)c2C(=O)N1c1cccc(OC)c1 (centres unmarked),11.5%
4,O=c1cc(-c2ccccc2)[nH]c2ccc(F)cc12,12.7%
5,COc1ccc(-n2nc(C(=O)NCC(=O)NCc3ccc(F)cc3)c3ccccc3c2=O)cc1,19.1%
6,Cc1nnc(SCC(=O)NC2CC2)n1-c1ccccc1,14.5%
7,c1coc(CN2CN=C(Nc3nc4ccccc4s3)NC2)c1,22.6%
8,Cc1ccc(NC(=O)c2sccc2C)nc1,16.3%
9,Cc1cccc2cc(COC(=O)COc3ccccc3)c(=O)[nH]c12,5.68%
10,COc1cc(CN2CCN(CCCc3ccccc3)CC2CCO)cc(OC)c1 (centres unmarked),-46.8%
11,CNS(=O)(=O)Cc1ccc2[nH]cc(CCN(C)C)c2c1.O=C(O)CCC(=O)O,3.77%
12,O=c1[nH]c(=S)n(-c2ccccc2)c(O)c1/C=N/N1CCCCC1c1cccnc1 (centres unmarked),-3.28%
13,CCn1nc(C)c(NC(=O)/C=C/c2ccc(OC)c(COc3ccc(Cl)cc3Br)c2)c1C,5.77%
14,Cn1cc([C@@H]2C[C@H]3CN(Cc4cccc(Cl)c4)C(=O)[C@]34CCCN24)c(-c2ccccc2)n1,-9.8%
15,CCCS(=O)(=O)n1nc(-c2ccc(C)cc2)cc1N,17.4%
16,Cc1ccc(C)c2[nH]c(=O)c(CN(CC3CCCO3)C(=S)NCc3ccco3)cc12 (centres unmarked),4.11%
17,COc1cccc(NC(=O)c2cccc(N3C(=O)C4CCC(C)CC4C3=O)c2)c1 (centres unmarked),4.83%
18,CCCCCNC(=O)[C@@H]1CSC2c3ccccc3C(=O)N21 (some centres unmarked),14%
19,Cc1nc(SC2CCOC2=O)c2c(C)c(C)sc2n1 (centres unmarked),4.94%
20,Cc1ccc(NC(=O)OCCN2CCN(Cc3ccccc3)CCC2=O)cc1,2.87%
21,Cc1ccc2[nH]c(=S)n(-c3cccnc3)c(=O)c2c1,10.3%
22,CCOC(=O)c1c(C)oc2c1cc(NS(=O)(=O)c1ccc(C(=O)O)cc1)c1ccccc12,-5.96%
23,CCOc1ccc(C(=O)/C=C/c2cn(CN3CCN(C)CC3)c3ccccc23)cc1,-4.61%

row,SMILES,"hERG current change (%, negative = inhibition) at 1uM"
1,Cc1ccc(OC(=O)c2ccc(Cl)c([N+](=O)[O-])c2)cn1,15.6%
2,CCOc1ccc(/C=C/C(=O)c2c(O)cc(C)oc2=O)cc1,5.52%
3,CCOC(=O)Nc1ccc2c(c1)OCO2,24.9%
4,Cc1ccc(CN2[C@@H](CC3CCCCC3)COCCS2(=O)=O)cc1,-9%
5,CCC(COC)NC(=O)CCc1nnc(Cc2cccc(C(F)(F)F)c2)o1 (centres unmarked),14.8%
6,CCN1CCN(C(=O)CSc2nc3c(c(=O)n(C)c(=O)n3C)n2C)CC1,12.8%
7,O=C(C1=C(O)C(=O)N(Cc2ccccc2)C1c1cccnc1)c1ccco1 (centres unmarked),3.89%
8,Cc1ccc(NCC(=O)N/N=C\c2ccc[nH]2)cc1,6.75%
9,Cc1ccccc1-n1c(-c2csc(C)c2C)n[nH]c1=S,7.59%
10,C=CCn1c(C)nnc1SCC(=O)NC1CC1,11.7%
11,CC(C)CNC(=O)C(=O)NCC1OCCCN1S(=O)(=O)c1ccc2c(c1)OCCO2 (centres unmarked),12.2%
12,Cc1cc(O)c(C(=O)Nc2cccc(Cl)c2)c(=O)n1C,17%
13,O=C1CS/C(=N/N=C/c2cccs2)N1Cc1ccc(F)cc1,7.95%
14,CC(OC(=O)c1ccc2c(=O)n3c(nc2c1)CCC3)C(=O)Nc1ccc(C(N)=O)cc1 (centres unmarked),6.17%
15,CCOc1ccccc1O[C@H](c1ccccc1)[C@H]1CNCCO1.CS(=O)(=O)O.O,18.2%
16,Cc1ccc(N2CCC(N3CCN(C)C(CCO)C3)CC2)cc1 (centres unmarked),13.9%
17,O=C(Oc1ccc[nH]c1=O)c1cc([N+](=O)[O-])cc([N+](=O)[O-])c1,7.41%
18,O=C(Cn1nnc2ccccc2c1=O)NCC1CCC(C(=O)O)CC1 (centres unmarked),16.1%
19,CC(C)Cn1c(N)c(C(=O)CSc2ncnc3sc4c(c23)CCCC4)c(=O)n(C)c1=O,2.03%
20,C=CCN(c1ccccc1)S(=O)(=O)c1cccc(C(=O)Nc2ncccc2O)c1,9.88%
21,O=C(O)C1CCN(C(=O)CSc2nc3ccccc3s2)CC1,10.9%
22,Cc1cc(Cl)ccc1OCCCC(=O)NCc1ccncc1,-11.1%
23,O=C(CC1SC2=NCCN2C1=O)Nc1ccccc1 (centres unmarked),4.6%

row,SMILES,"hERG current change (%, negative = inhibition) at 1uM"
1,Cc1cc2ncn(-c3ncnc4sc5c(c34)CCCC5)c2cc1C,4.3%
2,O=C(c1ccc(Cl)cc1)c1cnc2ccccn12,11.2%
3,CNC(=S)N/N=C/c1ccc(OCc2ccccc2)c(Br)c1,6.32%
4,O=C(NCc1cccc(Cl)c1)c1ccc2c(c1)SC1=NS(=O)(=O)CCN12,12.8%
5,COC(=O)C1=Nc2ccccc2/C1=C\c1c(O)n(-c2ccc(Br)cc2)c(=O)[nH]c1=O,15.5%
6,CCN(CC)c1ncccc1C(=O)NCc1cccs1,5.67%
7,CCn1c(SCC(=O)NC(=O)NCc2ccco2)nc2sc(C)c(C)c2c1=O,7.46%
8,N#Cc1nc(COc2ccccc2)oc1NCCCn1ccnc1,-28.3%
9,OCc1nc2ccccc2n1CCCOc1ccc(Br)cc1,13.9%
10,COC(=O)C(NC(=O)CSc1nc(N)cc(=O)[nH]1)c1ccccc1 (centres unmarked),17.7%
11,CCCS(=O)(=O)N1CCCC(C(=O)NCCN(CC)CC)C1 (centres unmarked),5.33%
12,O=C(O)COc1c(Cl)cc(/C=C2\NC(=O)NC2=O)cc1Br,16.8%
13,O=C(COC(=O)CCCN1C(=O)c2cccc3cccc(c23)C1=O)Nc1cccc(C(F)(F)F)c1,4.08%
14,Cc1ccc(C(C)(C)C)cc1S(=O)(=O)Nc1ncnc2sccc12,7.99%
15,CCOC(=O)C[C@H]1c2ccc(C(F)(F)F)cc2S(=O)(=O)N1C(C)(C)C,9.23%
16,COc1cc(C2C(=O)N(C3CCCC3)CC(=O)N2Cc2ccco2)ccc1OC(C)C (centres unmarked),1.4%
17,COc1ccc(CC(=O)Nc2cccc(C(=O)Nc3ccccc3C(=O)O)c2)cc1OC,14.6%
18,CC(C)c1nccn1S(=O)(=O)c1cccc([N+](=O)[O-])c1,5.68%
19,Cc1cc2ccccc2c(=O)n1CC(=O)NCC(=O)N1CCCC(C)C1 (centres unmarked),16.4%
20,COc1ccc(CCNC(=O)c2cc3c(cc2Cl)N2CCCCCC2=NS3(=O)=O)cc1,-8.34%
21,Cc1ccc(Nc2c(-c3ccccc3)nc3cnccn23)cc1,11.3%
22,COc1ccc(CNC(=O)Cc2cccs2)cc1,18.5%
23,COc1ccc(CNC(=O)C2CCN(S(=O)(=O)c3ccc4c(c3)NC(=O)C(C)S4)CC2)cc1 (centres unmarked),7.4%

row,SMILES,"hERG current change (%, negative = inhibition) at 1uM"
1,COc1ccc(/C(N)=N/OC(=O)Cc2ccccc2)cc1,-1.47%
2,CCOc1ccc(S(=O)(=O)N2CCCC(C(=O)NCc3cccnc3)C2)cc1Cl (centres unmarked),-1.43%
3,COc1ccc(CNC(=O)C2CCN(S(C)(=O)=O)CC2)c(OC)c1,5.97%
4,COC(=O)c1cc(=O)nc2scc(C)n12,-1.51%
5,CNC(=O)c1cc2cc(OC)ccc2n1CCN(C)C,6.7%
6,COc1ccccc1NC(=O)CSc1ccc2nnc(CCNC(=O)c3ccccc3)n2n1,17.4%
7,COCCNc1oc(/C=C/c2ccccc2)nc1C#N,7.53%
8,CC(C)C(=O)c1cn(CC(=O)NCc2ccco2)c2ccccc12,21.8%
9,CCCCN(CC)CCCNC(=O)c1ccc2c(c1)N(CC)C(=O)c1ccccc1S2(=O)=O,9.42%
10,CNC(=O)COc1ccc(S(=O)(=O)Nc2ccc(OC)cc2)cc1,16.1%
11,O=C(Nc1ccccc1-c1nnn(CC(=O)N2CCCc3ccccc32)n1)c1cccc(Cl)c1,8.6%
12,Cc1cc(C(F)(F)F)n2nc(C)c(-c3ccc(Cl)cc3)c2n1,12.9%
13,CCOC(=O)C1CCN(S(=O)(=O)c2ccc(Cl)cc2)CC1,5.42%
14,COc1ccc([C@@H]2CC=C(C(=O)O)[C@H](c3cccc(Cl)c3)N2S(=O)(=O)c2ccccc2C)cc1,22.1%
15,Cc1ccc2[nH]c(=O)c(CN(C)S(=O)(=O)c3cccc4nonc34)cc2c1,18%
16,COc1cccc(CSc2nnc(-c3ccncc3)n2N)c1,9.23%
17,CC(Cc1c[nH]c2ccccc12)C(=O)NCc1ccco1 (centres unmarked),5.07%
18,CC1CCCC(C)N1S(=O)(=O)c1ccc(NC(=O)CNCC2CCCO2)cc1.O=C(O)C(=O)O (centres unmarked),-6.48%
19,O=Cc1c(NCCN2CCOCC2)c2ccccc2[nH]c1=O,24.1%
20,O=C1CN(C(=O)COc2ccc(Br)cc2)c2ccccc2N1,7.44%
